{"source": "paper PMC4336329", "about": "(PLoS ONE, 2015)", "note": "In all, about 310,000 compounds went through this assay and about 2,200 (0.71%) showed an effect of 50% or more. The effect is printed as a negative number. This is one part of the list.", "data": [{"target": "human ether-à-go-go-related gene (hERG) potassium channel (human, UniProt Q12809)", "sequence (Q12809 whole entry, looked up)": "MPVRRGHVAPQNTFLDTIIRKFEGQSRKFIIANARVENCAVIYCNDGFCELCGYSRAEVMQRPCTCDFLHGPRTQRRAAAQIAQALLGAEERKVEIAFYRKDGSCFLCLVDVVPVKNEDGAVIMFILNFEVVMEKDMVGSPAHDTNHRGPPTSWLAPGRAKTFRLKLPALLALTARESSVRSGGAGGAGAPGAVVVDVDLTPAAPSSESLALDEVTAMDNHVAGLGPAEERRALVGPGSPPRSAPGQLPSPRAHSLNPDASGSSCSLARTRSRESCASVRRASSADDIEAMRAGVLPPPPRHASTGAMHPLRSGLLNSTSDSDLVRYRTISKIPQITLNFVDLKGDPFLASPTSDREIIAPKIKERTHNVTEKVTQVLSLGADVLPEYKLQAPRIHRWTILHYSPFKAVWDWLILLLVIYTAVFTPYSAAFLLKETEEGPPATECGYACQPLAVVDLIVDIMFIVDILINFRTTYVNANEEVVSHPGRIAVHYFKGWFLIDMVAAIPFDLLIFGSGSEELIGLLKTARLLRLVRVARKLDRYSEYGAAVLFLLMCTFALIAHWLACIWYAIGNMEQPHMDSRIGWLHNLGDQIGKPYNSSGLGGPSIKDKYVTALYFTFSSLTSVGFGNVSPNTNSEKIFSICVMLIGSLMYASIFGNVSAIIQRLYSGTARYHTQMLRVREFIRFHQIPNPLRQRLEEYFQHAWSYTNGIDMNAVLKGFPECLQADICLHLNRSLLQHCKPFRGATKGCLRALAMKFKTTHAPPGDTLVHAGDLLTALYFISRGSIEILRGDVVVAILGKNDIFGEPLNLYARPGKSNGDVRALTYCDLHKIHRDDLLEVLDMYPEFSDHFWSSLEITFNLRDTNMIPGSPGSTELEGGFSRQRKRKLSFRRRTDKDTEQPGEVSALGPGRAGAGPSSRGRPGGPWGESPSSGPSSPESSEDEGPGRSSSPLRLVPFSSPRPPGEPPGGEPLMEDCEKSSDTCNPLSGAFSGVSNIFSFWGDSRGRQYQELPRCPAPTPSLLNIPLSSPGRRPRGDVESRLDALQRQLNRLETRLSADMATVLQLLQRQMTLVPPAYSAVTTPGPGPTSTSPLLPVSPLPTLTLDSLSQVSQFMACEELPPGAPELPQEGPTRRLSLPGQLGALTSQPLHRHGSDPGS", "experiment": "primary screen, population patch clamp on CHO cells stably expressing hERG", "units": {"hERG current change (%, negative = inhibition) at 1uM": "%"}, "values": [{"smiles": "CC(SCc1ccccc1)C(=O)N/N=C/c1ccc(OCC(=O)NCc2ccco2)cc1", "note": "(stereo not shown)", "hERG current change (%, negative = inhibition) at 1uM": 8.33}, {"smiles": "COc1cccc(CNS(=O)(=O)c2ccc3c(c2)N(C(C)=O)CCO3)c1", "hERG current change (%, negative = inhibition) at 1uM": 10.2}, {"smiles": "O=C(NCc1ccccc1)C1=C[C@H](c2ccc(C(F)(F)F)cc2)C[C@H](OCCCCO)O1", "hERG current change (%, negative = inhibition) at 1uM": 4.91}, {"smiles": "O=C(Cn1cc2c(n1)CCCC2)NCCCN1CCN(Cc2ccccc2)CC1", "hERG current change (%, negative = inhibition) at 1uM": -7.47}, {"smiles": "CC(CNC(=O)C1CCCCC1)NC(=O)C1CCCCC1", "note": "(stereo not shown)", "hERG current change (%, negative = inhibition) at 1uM": 1.44}, {"smiles": "CC1CCN(c2c(NCC3CCC(C(=O)NCc4ccccc4)CC3)c(=O)c2=O)CC1", "note": "(stereo not shown)", "hERG current change (%, negative = inhibition) at 1uM": 13.1}, {"smiles": "CC(C)(C)c1ccc(C(=O)N/C(=C/c2cccs2)C(=O)NCc2ccco2)cc1", "hERG current change (%, negative = inhibition) at 1uM": 10.9}, {"smiles": "Cc1cccc(NC(=O)CSc2ncnc3sc(C)cc23)c1", "hERG current change (%, negative = inhibition) at 1uM": 13.4}, {"smiles": "Cc1cc(NC(=O)c2cc(-c3ccc4c(c3)OCO4)on2)n(-c2ccccc2)n1", "hERG current change (%, negative = inhibition) at 1uM": 10.4}, {"smiles": "O=C(O)CCc1ccc(-c2ccc(F)cc2)n1CC1CCCO1", "note": "(stereo not shown)", "hERG current change (%, negative = inhibition) at 1uM": -17.8}, {"smiles": "CCCCCCn1c(O)c(/C=N/N2CCCCCC2)c(=O)[nH]c1=O", "hERG current change (%, negative = inhibition) at 1uM": 6.63}, {"smiles": "CCOC(=O)C1CCCN(C(=O)CSc2ccc(Br)cc2)C1", "note": "(stereo not shown)", "hERG current change (%, negative = inhibition) at 1uM": -3.22}, {"smiles": "CN(C)CCOC(=O)CCCCCCCCC(=O)OCCN(C)C.Cl", "hERG current change (%, negative = inhibition) at 1uM": 9.14}, {"smiles": "COc1ccc(C(=O)O)cc1S(=O)(=O)NC(C)(C)C", "hERG current change (%, negative = inhibition) at 1uM": 19.1}, {"smiles": "CCCC(=O)NNc1c2ccccc2nc2ccccc12", "hERG current change (%, negative = inhibition) at 1uM": 9.1}, {"smiles": "CCOC(=O)C1=C(N)Oc2ccc3ccccc3c2C1c1ccc(O)cc1", "note": "(stereo not shown)", "hERG current change (%, negative = inhibition) at 1uM": 2.28}, {"smiles": "CCOC(=O)Nc1sc(C(=O)N(C)C)c(C)c1C(=O)OCC", "hERG current change (%, negative = inhibition) at 1uM": 5.78}, {"smiles": "CN1/C(=C/C=N/NC(=O)c2ccc([N+](=O)[O-])cc2)C(C)(C)c2ccccc21", "hERG current change (%, negative = inhibition) at 1uM": 1.35}, {"smiles": "COc1ccc(NC2=CC(c3ccc(F)cc3)N(c3ccc(OC)cc3)C2=O)cc1", "note": "(stereo not shown)", "hERG current change (%, negative = inhibition) at 1uM": 2.4}, {"smiles": "COCCCNC(=O)CSc1nc2ccccc2c(=O)n1CCC(=O)NCCc1ccc(OC)c(OC)c1", "hERG current change (%, negative = inhibition) at 1uM": 8.34}, {"smiles": "COc1ccccc1N1CC(C(=O)Nc2nnc(SCC(=O)NCC3CCCO3)s2)CC1=O", "note": "(stereo not shown)", "hERG current change (%, negative = inhibition) at 1uM": 10.3}, {"smiles": "COc1cc(CN2CCN(CCOCCO)CC2)cc(OC)c1OC", "hERG current change (%, negative = inhibition) at 1uM": 3.59}, {"smiles": "Cc1cnc(C(=O)NC2CC(C)(C)Cc3c2cnn3-c2cccc(F)c2)cn1", "note": "(stereo not shown)", "hERG current change (%, negative = inhibition) at 1uM": 3.82}, {"smiles": "CN(CCOc1ccc(Cl)cc1)C(=O)c1ccc2c(=O)n3c(nc2c1)CCC3", "hERG current change (%, negative = inhibition) at 1uM": -0.931}, {"smiles": "CN(C)S(=O)(=O)c1cccc(NC(=S)Nc2ccc3cn[nH]c3c2)c1", "hERG current change (%, negative = inhibition) at 1uM": 6.82}, {"smiles": "Cc1ccccc1C(=O)NC(=S)NCC(=O)c1ccccc1", "hERG current change (%, negative = inhibition) at 1uM": 3.72}, {"smiles": "C=CCN(CC=C)S(=O)(=O)c1ccc(NC(=S)NC(=O)/C=C/c2cccc3ccccc23)cc1", "hERG current change (%, negative = inhibition) at 1uM": 3.67}, {"smiles": "O=C(CSc1nnc(-c2ccc(S(=O)(=O)N3CCCC3)cc2)o1)NCc1ccco1", "hERG current change (%, negative = inhibition) at 1uM": 7.71}, {"smiles": "O=C(C1CCCO1)N1CCN(C(=S)Nc2ccc(F)cc2)CC1", "note": "(stereo not shown)", "hERG current change (%, negative = inhibition) at 1uM": -4.91}, {"smiles": "COc1ccc(C(C(=O)NC2CCCC2)N(C(=O)c2csnn2)C2CC2)cc1", "note": "(stereo not shown)", "hERG current change (%, negative = inhibition) at 1uM": -5.74}, {"smiles": "O=C(CCCSc1nc2ccccc2c(=O)[nH]1)c1ccc(F)cc1", "hERG current change (%, negative = inhibition) at 1uM": 2.7}, {"smiles": "CCOC(=O)CCc1nc2ccccc2[nH]c1=O", "hERG current change (%, negative = inhibition) at 1uM": 4.53}, {"smiles": "COC(=O)C1CCN(S(=O)(=O)c2ccc(Br)s2)CC1", "hERG current change (%, negative = inhibition) at 1uM": 7.8}, {"smiles": "CC1CCCCC1NC(=O)NC(=O)COC(=O)c1cncc(Br)c1", "note": "(stereo not shown)", "hERG current change (%, negative = inhibition) at 1uM": 4.7}, {"smiles": "OC(COc1ccc2ccccc2c1)CN1CCN(c2ccc(F)cc2)CC1", "note": "(stereo not shown)", "hERG current change (%, negative = inhibition) at 1uM": -1.08}, {"smiles": "Cc1ccc(NC(=O)c2c(O)c3ccccc3n(C)c2=O)nc1", "hERG current change (%, negative = inhibition) at 1uM": -3.31}, {"smiles": "COc1ccc(Cl)cc1NC(=O)CNC(c1ccccc1)c1ccccc1", "hERG current change (%, negative = inhibition) at 1uM": 9.93}, {"smiles": "CC(C)(C)c1nnc(NS(C)(=O)=O)s1", "hERG current change (%, negative = inhibition) at 1uM": 8.87}, {"smiles": "CCN1C(=O)N[C@@H](c2ccco2)C(C(C)=O)=C1C", "hERG current change (%, negative = inhibition) at 1uM": 17.6}, {"smiles": "CCOC(=O)c1c(SC)nc(SC)c2c1CCC2", "hERG current change (%, negative = inhibition) at 1uM": 11.4}, {"smiles": "O=C(NC1CCCCC1)C(c1cccs1)N(C(=O)Cc1c[nH]c2ccccc12)c1ccc(F)cc1", "note": "(stereo not shown)", "hERG current change (%, negative = inhibition) at 1uM": 10.4}, {"smiles": "Cc1nccn1CCC1CCCCN1C(=O)CCc1nnc(-c2ccsc2)o1", "note": "(stereo not shown)", "hERG current change (%, negative = inhibition) at 1uM": 12.6}, {"smiles": "COc1ccccc1CN1CC(C(=O)NCCn2ccc(C)n2)CCC1=O", "note": "(stereo not shown)", "hERG current change (%, negative = inhibition) at 1uM": 8.52}, {"smiles": "O=C(O)CC1SC(=Nc2ccccc2)N(c2ccccc2)C1=O", "note": "(stereo not shown)", "hERG current change (%, negative = inhibition) at 1uM": 12.1}, {"smiles": "COc1ccc(CN2CCNC(=O)C2CC(=O)O)c(OC)c1", "note": "(stereo not shown)", "hERG current change (%, negative = inhibition) at 1uM": 10.5}, {"smiles": "O=S(=O)(c1ccc(=S)[nH]c1)N1CCCCC1", "hERG current change (%, negative = inhibition) at 1uM": 16.8}, {"smiles": "NC(=O)c1nsc(C(=O)N(CC(=O)NC2CCCC2)Cc2ccc3c(c2)OCO3)c1N", "hERG current change (%, negative = inhibition) at 1uM": 7.32}, {"smiles": "CC(Sc1nnc(-c2ccc(O)cc2)o1)C(=O)Nc1cccc2ccccc12", "note": "(stereo not shown)", "hERG current change (%, negative = inhibition) at 1uM": 7.58}, {"smiles": "CN(Cc1ccccc1)C(=O)c1cc(-c2ccc(Br)cc2)on1", "hERG current change (%, negative = inhibition) at 1uM": 8.41}, {"smiles": "O=C1c2ccccc2OCOc2ccccc21", "hERG current change (%, negative = inhibition) at 1uM": -0.41}, {"smiles": "CC(=O)Nc1cc2c(cc1NC(=O)Cn1nc(-c3ccccc3F)ccc1=O)OCCO2", "hERG current change (%, negative = inhibition) at 1uM": 1.56}, {"smiles": "CC(=O)Nc1cccc(-n2nnc(SCC(=O)Nc3ccc(F)c(Cl)c3)n2)c1", "hERG current change (%, negative = inhibition) at 1uM": 19.5}, {"smiles": "CCCn1c(SCC(=O)Nc2c(C)cccc2C)nnc1C(C)C", "hERG current change (%, negative = inhibition) at 1uM": 5.06}, {"smiles": "COc1ccccc1CNC(=O)CSC(=S)N1CCCC1", "hERG current change (%, negative = inhibition) at 1uM": 3.59}, {"smiles": "C=CCc1cccc2cc(C(=O)NCc3ccc(C(=O)OCC)o3)c(=O)oc12", "hERG current change (%, negative = inhibition) at 1uM": -0.19}, {"smiles": "CCOc1cccc(NC(=O)c2ccc(S(=O)(=O)N(C)C)cc2)c1", "hERG current change (%, negative = inhibition) at 1uM": 7.76}, {"smiles": "O=C(NC1CC1)c1cc(=O)c2ccccc2o1", "hERG current change (%, negative = inhibition) at 1uM": 2.76}, {"smiles": "COc1ccc(C2CC(c3ccc(F)cc3)n3nc(NS(C)(=O)=O)nc3N2)cc1", "note": "(stereo not shown)", "hERG current change (%, negative = inhibition) at 1uM": 15.8}]}]}
